Assay results published in publication PMC4336329 (PLoS ONE, 2015).
About 2,200 (0.71%) of roughly 310,000 compounds showed an effect of 50% or more. Effects have a minus sign here. The list shows a part of the results.

These molecules were tested against human ether-à-go-go-related gene (hERG) potassium channel (human, UniProt Q12809) (assay: primary screen, population patch clamp on CHO cells stably expressing hERG).
Sequence of human ether-à-go-go-related gene (hERG) potassium channel (Q12809 whole entry, looked up): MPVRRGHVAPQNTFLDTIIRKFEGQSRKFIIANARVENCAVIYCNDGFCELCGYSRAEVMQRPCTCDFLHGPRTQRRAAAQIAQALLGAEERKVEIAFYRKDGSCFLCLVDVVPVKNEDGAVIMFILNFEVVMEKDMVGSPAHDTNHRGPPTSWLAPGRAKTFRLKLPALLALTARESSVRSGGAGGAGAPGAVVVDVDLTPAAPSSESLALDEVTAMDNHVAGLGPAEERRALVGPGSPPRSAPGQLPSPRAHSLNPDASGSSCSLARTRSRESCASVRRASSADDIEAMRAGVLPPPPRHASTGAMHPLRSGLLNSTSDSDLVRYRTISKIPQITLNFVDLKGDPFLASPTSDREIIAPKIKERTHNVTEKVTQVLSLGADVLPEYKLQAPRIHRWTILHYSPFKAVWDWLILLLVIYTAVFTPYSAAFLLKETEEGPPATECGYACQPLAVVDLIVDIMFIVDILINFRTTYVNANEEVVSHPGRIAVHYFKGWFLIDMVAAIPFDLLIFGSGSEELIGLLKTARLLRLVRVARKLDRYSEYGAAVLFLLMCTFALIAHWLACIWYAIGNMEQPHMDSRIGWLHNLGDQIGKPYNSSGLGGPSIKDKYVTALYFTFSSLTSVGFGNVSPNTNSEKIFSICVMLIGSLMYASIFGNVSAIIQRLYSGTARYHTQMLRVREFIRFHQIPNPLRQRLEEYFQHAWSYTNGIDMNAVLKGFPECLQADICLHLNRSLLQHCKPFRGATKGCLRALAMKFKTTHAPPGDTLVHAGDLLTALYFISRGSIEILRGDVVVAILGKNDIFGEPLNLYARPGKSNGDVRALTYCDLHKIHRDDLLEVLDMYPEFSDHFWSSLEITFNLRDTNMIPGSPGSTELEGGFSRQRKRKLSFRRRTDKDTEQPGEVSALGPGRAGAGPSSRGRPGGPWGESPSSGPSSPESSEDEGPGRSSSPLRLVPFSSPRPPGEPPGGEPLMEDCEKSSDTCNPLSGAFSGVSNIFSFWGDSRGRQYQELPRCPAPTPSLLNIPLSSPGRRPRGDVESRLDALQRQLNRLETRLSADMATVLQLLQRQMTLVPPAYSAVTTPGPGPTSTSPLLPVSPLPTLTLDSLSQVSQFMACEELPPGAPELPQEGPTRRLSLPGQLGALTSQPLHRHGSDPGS

Going from `Cc1ccc(C2(C)NC(=O)N(CC(=O)Nc3c(C)n(C)n(-c4ccccc4)c3=O)C2=O)cc1` (centres unmarked) to `Cc1c(C(c2ccc(Cl)cc2Cl)c2c(O)c3ccccc3oc2=O)c(=O)n(-c2ccccc2)n1C` (centres unmarked), the “hERG current change (%, negative = inhibition) at 1uM” value falls from 14.4% to -4.08%.

First: CC(C)CC(=O)N1CCN(C(=O)CCC2CCCC2)CC1
Second: CCc1nn(CC(=O)N2CCC(C)CC2)c(=O)c2cccn12
The “hERG current change (%, negative = inhibition) at 1uM” value of the first is lower: 5.45% for the first, 12.3% for the second.

Compared with `Cc1csc(NC(=O)CN2C(=O)c3ccccc3S2(=O)=O)n1`, `Cc1nc2scc(-c3ccccc3)c2c(=O)o1` is lower in “hERG current change (%, negative = inhibition) at 1uM” value: 6.66% for the first, -8.18% for the second.

Going from `Cc1cccc(OCC(=O)NC2CCCCCC2)c1C` to `O=S(=O)(NC1CCCCCCC1)c1ccc(F)cc1`, the “hERG current change (%, negative = inhibition) at 1uM” value rises from 10.5% to 12.2%.

First: CN(C)C(=O)C1(c2ccccc2)CCN(S(=O)(=O)c2ccccc2)CC1
Second: COc1ccc(S(=O)(=O)N2CCN(c3ccccc3)CC2)cc1
The “hERG current change (%, negative = inhibition) at 1uM” value of the first is higher: 11.9% for the first, 8.51% for the second.

Going from `Cc1c(Cl)cnc(NC(=O)COC(=O)c2cccs2)c1Cl` to `CCOC(=O)c1c(NC(=O)c2ccncc2)sc(C)c1C`, the “hERG current change (%, negative = inhibition) at 1uM” value falls from 9.84% to 9.53%.

Compared with `O=C(O)/C=C/C(=O)NCCC1=CCCCC1`, `O=C(NCCc1ccc(Cl)cc1)C1CCCN1C(=O)Nc1ccc(F)cc1` (centres unmarked) is lower in “hERG current change (%, negative = inhibition) at 1uM” value: 12.9% for the first, -0.166% for the second.

Going from `C=C(C(=O)Nc1ccccc1)c1ccc(C)cc1` to `C=CCN(c1ccc(C(=O)NCCc2ccccc2)cc1)S(C)(=O)=O`, the “hERG current change (%, negative = inhibition) at 1uM” value falls from 2.84% to -0.77%.

Going from `CC(C)Cn1c(N)c(C(=O)COC(=O)c2ccccc2Cl)c(=O)n(C)c1=O` to `CN(CC(=O)Nc1ccc(Cl)cc1)S(=O)(=O)c1ccc2c(c1)n(C)c(=O)c(=O)n2C`, the “hERG current change (%, negative = inhibition) at 1uM” value rises from -0.862% to 14%.

Compared with `Cc1ccc(C(C)C)c(Oc2nnnn2-c2ccccc2)c1`, `Cc1cccc(N2CCN(c3nnnn3-c3ccccc3)CC2C)c1` (centres unmarked) is lower in “hERG current change (%, negative = inhibition) at 1uM” value: 10.5% for the first, 6% for the second.

First: C[C@]12CC(=O)CC1CCC1C2CC[C@@]2(C)C1CC[C@@H]2O (some centres unmarked)
Second: C=C1CCC[C@]2(C)C[C@H]3OC(=O)C(CNCC(OC)OC)[C@H]3CC12 (some centres unmarked)
The “hERG current change (%, negative = inhibition) at 1uM” value of the first is lower: 9.3% for the first, 18.4% for the second.

Going from `COc1ccc(S(=O)(=O)NCCC(=O)OCC(=O)c2ccc[nH]2)cc1[N+](=O)[O-]` to `CCC(C)(C)NS(=O)(=O)c1cc(CN2C(=O)c3cccnc3C2=O)ccc1OC`, the “hERG current change (%, negative = inhibition) at 1uM” value rises from -0.398% to 11.4%.

Compared with `CCOP(=O)(OCC)C(Nc1ccccc1)c1ccco1` (centres unmarked), `COc1ccc2oc(C(=O)NCC(Cc3ccccc3)N(C)C)c(C)c2c1` (centres unmarked) is lower in “hERG current change (%, negative = inhibition) at 1uM” value: 11.5% for the first, -6.57% for the second.

Compared with `CC(=O)c1cccc(NC(=O)N2C3CCC2CC(O)(c2cccnc2)C3)c1` (centres unmarked), `O=C(Oc1ccccc1C(=O)Oc1ccccc1)c1cccnc1` is higher in “hERG current change (%, negative = inhibition) at 1uM” value: 6.97% for the first, 7.66% for the second.

First: O=C(CSc1cc(Cl)ccc1Cl)NCC1CCCO1 (centres unmarked)
Second: O=C(c1ccccc1F)N1CCN(c2ccc([N+](=O)[O-])c(NCC3CCCO3)c2)CC1 (centres unmarked)
The “hERG current change (%, negative = inhibition) at 1uM” value of the first is lower: -16.6% for the first, -10.1% for the second.

Going from `CCOC(=O)c1nnn(-c2nonc2N)c1COc1cc(C)c(Cl)c(C)c1` to `COc1cc(NC(=O)CSc2cc(C)c3cc(C)cc(C)c3n2)c(C(=O)O)cc1OC`, the “hERG current change (%, negative = inhibition) at 1uM” value rises from 10.2% to 11.5%.

Going from `COC(=O)CC1(C(=O)OC)Oc2ccccc2C(=O)N1c1ccc(F)cc1F` (centres unmarked) to `COc1ccc(C2Nc3ccccc3C(=O)N2NS(C)(=O)=O)cc1OC` (centres unmarked), the “hERG current change (%, negative = inhibition) at 1uM” value rises from 10.2% to 11.7%.

Compared with `COCc1cc(CNC(=O)C2CCC(=O)N(Cc3ccccc3OC)C2)[nH]n1` (centres unmarked), `O=C(C1CCN(Cc2ccc(OCc3ccccc3)cc2)CC1)N1CCCC1` is lower in “hERG current change (%, negative = inhibition) at 1uM” value: 11.8% for the first, -14.6% for the second.

First: CCOc1cc(NCCN2CCOCC2)c([N+](=O)[O-])cc1OCC
Second: CC(C)Oc1ccc(S(=O)(=O)N2CCOCC2)cc1NC(=O)C1CSC2(C)CCC(=O)N12 (centres unmarked)
The “hERG current change (%, negative = inhibition) at 1uM” value of the first is lower: 3.83% for the first, 8.32% for the second.

First: O=C(N/N=C\c1ccc(CNS(=O)(=O)c2ccccc2)o1)C(=O)Nc1ccc(F)cc1
Second: CCCCCCCC(=O)Nc1cc(C(=O)NCCC)ccc1N1CCC2(CC1)CC(c1ccccc1)=NO2
The “hERG current change (%, negative = inhibition) at 1uM” value of the first is lower: -6.45% for the first, 0.0883% for the second.

Compared with `CCC(=O)c1cn(Cc2ccc(C#N)cc2)c2ccccc12`, `O=C(CSc1nnc(-c2ccncc2)o1)c1ccc2c(c1)OCCO2` is higher in “hERG current change (%, negative = inhibition) at 1uM” value: -9.44% for the first, 9.65% for the second.

Going from `Cc1ccc(NS(=O)(=O)c2cc(C(=O)N3CCCC3)ccc2C)cc1C` to `Cc1ccc(Cc2c(C)nc3nc(SCC(=O)NCCCN4CCCCC4)nn3c2C)cc1`, the “hERG current change (%, negative = inhibition) at 1uM” value falls from 8.34% to -19.7%.
